No constants are given. Whether binding was seen depends on the method and setting. In cells and extracts the contact can be indirect. Some results given as binding are weak or reduced against the parent protein; the word gives no strength. Sequences can lack the tags named with a protein.
Key:
Assay in all cases: split reporter; bimolecular fluorescence complementation of NGFP and CGFP fusions in strain JKA17; rich medium with 100 µM IPTG, 0.4% arabinose and 0.2% glucose, three days at 25 °C; relative fluorescence of equal amounts of cells read in a fluorimeter
[1] = biological target: T1, EIIC^Glc-Linker-CGfp (E. coli K-12) (UniProt P69786)
T1 sequence: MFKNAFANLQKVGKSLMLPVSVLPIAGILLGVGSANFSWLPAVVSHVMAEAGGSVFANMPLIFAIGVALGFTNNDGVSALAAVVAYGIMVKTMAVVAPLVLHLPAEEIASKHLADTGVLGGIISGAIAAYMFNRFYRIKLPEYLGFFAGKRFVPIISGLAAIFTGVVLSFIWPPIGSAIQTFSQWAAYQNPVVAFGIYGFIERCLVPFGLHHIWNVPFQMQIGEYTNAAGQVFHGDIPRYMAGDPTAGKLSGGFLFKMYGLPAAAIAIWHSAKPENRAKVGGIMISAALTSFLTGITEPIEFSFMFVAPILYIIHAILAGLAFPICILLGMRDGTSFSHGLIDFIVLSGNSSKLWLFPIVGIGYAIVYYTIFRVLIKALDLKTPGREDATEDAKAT

[2] = biological target: T2, EIIB^Glc-CGfp (E. coli K-12) (UniProt P69786)
T2 sequence: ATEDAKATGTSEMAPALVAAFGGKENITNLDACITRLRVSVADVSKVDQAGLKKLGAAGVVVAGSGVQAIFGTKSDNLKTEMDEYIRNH

[3] = biological target: T3, EIIC^Glc-CGfp (E. coli K-12) (UniProt P69786)
T3 sequence: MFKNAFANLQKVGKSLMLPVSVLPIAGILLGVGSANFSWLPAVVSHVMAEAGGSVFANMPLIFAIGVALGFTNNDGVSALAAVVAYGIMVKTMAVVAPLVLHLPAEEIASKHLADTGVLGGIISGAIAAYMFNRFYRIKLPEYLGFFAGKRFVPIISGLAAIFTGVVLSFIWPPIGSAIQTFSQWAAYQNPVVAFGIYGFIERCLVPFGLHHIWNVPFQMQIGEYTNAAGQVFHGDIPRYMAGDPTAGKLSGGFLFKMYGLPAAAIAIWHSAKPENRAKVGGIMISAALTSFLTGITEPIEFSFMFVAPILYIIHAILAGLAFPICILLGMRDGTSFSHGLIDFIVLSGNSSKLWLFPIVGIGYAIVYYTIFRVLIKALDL

[4] = biological target: T4, EIIC^Glc-Linker-P384R-CGfp (E. coli K-12) (UniProt P69786)
T4 sequence: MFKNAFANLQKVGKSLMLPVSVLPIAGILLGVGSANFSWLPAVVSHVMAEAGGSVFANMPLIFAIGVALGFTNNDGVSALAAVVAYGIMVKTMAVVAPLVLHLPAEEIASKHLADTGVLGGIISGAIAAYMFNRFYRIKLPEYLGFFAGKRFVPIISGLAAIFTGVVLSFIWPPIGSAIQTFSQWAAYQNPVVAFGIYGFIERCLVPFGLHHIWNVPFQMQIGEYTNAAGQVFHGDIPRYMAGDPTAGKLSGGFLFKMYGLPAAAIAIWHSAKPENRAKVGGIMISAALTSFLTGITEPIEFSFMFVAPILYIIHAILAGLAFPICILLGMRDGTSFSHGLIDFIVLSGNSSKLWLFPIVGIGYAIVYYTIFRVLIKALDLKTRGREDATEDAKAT

[5] = biological target: T5, EIICB^Glc-CGfp (E. coli K-12) (UniProt P69786)
T5 sequence: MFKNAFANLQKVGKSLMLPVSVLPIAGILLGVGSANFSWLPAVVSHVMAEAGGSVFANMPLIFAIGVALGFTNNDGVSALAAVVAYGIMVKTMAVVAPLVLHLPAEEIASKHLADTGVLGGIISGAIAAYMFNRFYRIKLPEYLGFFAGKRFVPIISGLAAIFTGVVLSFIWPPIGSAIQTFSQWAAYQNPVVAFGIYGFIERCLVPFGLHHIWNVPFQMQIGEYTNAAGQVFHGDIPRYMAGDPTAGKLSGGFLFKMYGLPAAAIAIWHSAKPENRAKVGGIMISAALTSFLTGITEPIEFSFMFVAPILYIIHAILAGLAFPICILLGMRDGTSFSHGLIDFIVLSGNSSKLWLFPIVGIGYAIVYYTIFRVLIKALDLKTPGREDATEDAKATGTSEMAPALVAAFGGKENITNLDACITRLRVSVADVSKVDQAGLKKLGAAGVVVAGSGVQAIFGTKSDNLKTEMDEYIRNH

[6] = biological target: T6, Linker-EIIB^Glc-CGfp (E. coli K-12) (UniProt P69786)
T6 sequence: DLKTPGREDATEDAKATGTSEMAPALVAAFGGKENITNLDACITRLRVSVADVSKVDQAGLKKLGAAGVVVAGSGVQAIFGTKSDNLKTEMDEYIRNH

- binding [1]: binds
- binding [2]: no binding
- binding [3]: no binding
- binding [4]: no binding
- binding [5]: binds
- binding [6]: no binding
Binder: MRQFYQHYFTATAKLCWLRWLSVPQRLTMLEGLMQWDDRNSES (peptide, UniProt C1P5Z7 1-43) [SgrT-NGfp]

Source: article PMC3901232
